About 6,000 (1.7%) of roughly 360,000 compounds were called active. This list was built around the results that the source calls inconclusive (neither active nor inactive); the mix of calls is not that of the screen. Calls come from the whole dose curve; as a rule, active = well fitted cell-killing curve with a large enough effect; inconclusive = small, poorly fitted or top-dose-only effect, or effect the other way; inactive = flat fitted curve, though single readings scatter. No potency is given beside an inconclusive call; the fits are too rough.
Test: qHTS for induction of synthetic lethality in tumor cells producing 2HG: qHTS for the HT-1080-NT fibrosarcoma cell line;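 note: NT is the 2HG producing partner of a matched IDH1 knockdown line; nearly all actives have a fitted effect of over 55% in size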;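 for activity, negative = less viability: 0% = DMSO-treated cells and -100% = media-only wells without cells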
Conditions: HT-1080-NT fibrosarcoma viability, CellTiter-Glo ATP luminescence, 48 h; activity, negative = less viability: at 46.1 µM (top of the series) unless noted
Method in brief: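 750 cells/well, RPMI + 5% FBS; 2 h settle, compound pin-transfer, 48 h at 37 degrees C. CellTiter-Glo 10 min RT, luminescence. Normalized to DMSO and media-only wells.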
Potency is the fitted concentration of half-maximal effect; tags give direction and shape of the fitted curve.

Structure (SMILES)	activity, negative = less viability	Potency
CCCCCOc1ccc(NC(=O)C(=O)NCC2CCCN2CC)cc1 (centres undefined)	inactive: -13.4%	–
Cc1cccc(NC(=S)NC(=O)/C=C/c2ccco2)c1	–	inconclusive [cytotoxic, full curve]
CCc1cccc2c(C(=O)CN3C(=O)NC4(CCCCCC4)C3=O)c[nH]c12	–	inconclusive [cytotoxic, partial curve]
CC(=O)C[C@H]1c2cc(C(F)(F)F)ccc2S(=O)(=O)N1c1ccc(N(C)C)cc1	inactive: -5.96%	–
COc1ccc(C(C)NC(=O)C2CCN(CCOc3ccc(Cl)cc3Cl)CC2)cc1OC (centres undefined)	–	active: 23.1 µM
CCOC(=O)c1ccccc1NC(=O)c1cc2sccc2n1C	inactive: 6.24%	–
COc1cc(CCC(N)c2cccc(O)c2)cc(OC)c1OC (centres undefined)	inactive: 1.12%	–
O=S(c1ccccc1O)S(=O)c1ccccc1O (centres undefined)	–	inconclusive [cytotoxic, partial curve]
CN(C)Cc1ccccc1Sc1ccc2c(c1)CCCC2	–	inconclusive [cytotoxic, single point]
O=C(N/C(=C\c1cccs1)C(=O)N1CCCCCC1)c1ccccc1	inactive: -1.88%	–
OC[C@@H]1CN(Cc2ccccc2)C[C@H](n2cnc3c(NC4CC4)ncnc32)O1	inactive: 13.1%	–
Cc1nn(CCCC(=O)NC(C)c2ccccc2)c(=O)c2nn(-c3ccccc3)c(C)c12 (centres undefined)	inactive: -1.09%	–
COc1cc(-c2noc(C)c2/C=C/c2cccc([N+](=O)[O-])c2)cc(OC)c1OC	–	active: 2.31 µM
COc1cccc(/C=N/Nc2nc(Nc3ccccc3)nc(-n3nc(C)cc3C)n2)c1O	–	active: 6.51 µM
CCCCC/C(=N\NC(=O)CCC(=O)NCc1ccccc1)c1ccccc1	–	inconclusive [cytotoxic, single point]
CCOc1ccc(-n2c(-c3ccc(OC)cc3)c[n+]3c2CCCCC3)cc1	–	inconclusive [cytotoxic, partial curve, poor fit]
Cc1sc2nc(C3CC3)nc(SCC(=O)N3CCc4ccccc4C3)c2c1C	inactive: -0.699%	–
C=CC(=O)N1C/C=C\C(c2ccc(OC)cc2)N(Cc2ccc(F)cc2)C(=O)C1 (centres undefined)	inactive: -8.09%	–
CCOc1ccc(NS(=O)(=O)c2c(C(=O)N3CCCCCC3)c(C)n(C)c2C)cc1	inactive: 0.786%	–
O=C(Nc1ccc2c(c1)OCCO2)C(c1ccnc2ccccc12)N1CCN(C/C=C/c2ccccc2)CC1 (centres undefined)	–	inconclusive [cytotoxic, single point]
O=c1cc(CSc2ccccc2)[nH]c(=S)[nH]1	inactive: -4.23%	–
Cc1cc(N2CCN(C)CC2)nc2ccc(NC(=S)N3CCN(c4ccc(Cl)cc4)CC3)cc12	–	inconclusive [cytotoxic, single point]
Cc1ccc(OCC(=O)Nc2cccc(-c3nnc(-c4ccccc4)o3)c2)cc1	inactive: -0.368%	–
O=C1C(c2ccccc2)=[N+]([O-])c2ccccc21	–	inconclusive [cytotoxic, single point]
Cc1cccc(N(C)c2ncnc3onc(-c4ccc(F)cc4)c23)c1C	–	inconclusive [cytotoxic, single point]

Structure (SMILES)	activity, negative = less viability	Potency
Cc1ccc(S(=O)(=O)N2CCCCC2)cc1NC(=O)CCc1nc2ccccc2c(=O)[nH]1	inactive: -5.86%	–
O=C(NNC(=O)c1ccc(Oc2ccc(C3SCCS3)cc2)o1)c1ccc(Cl)cc1	–	inconclusive [cytotoxic, single point]
COc1cccc(/C=N\NC(=O)c2sc(N)nc2C)c1OC	–	inconclusive [rising, partial curve]
NC(=O)c1cccnc1Nc1ccccc1F	–	inconclusive [rising, single point]
CCN(CC)CCCC(C)Nc1nccc2c(Cl)cccc12 (centres undefined)	–	inconclusive [cytotoxic, single point]
CCOc1ccc(NCc2cccn2-c2nnc(N3CCC(C(=O)NCCCN4C(C)CCCC4C)CC3)s2)cc1 (centres undefined)	–	inconclusive [cytotoxic, single point]
O=C(Oc1cccc2cccnc12)c1cccs1	–	active: 14.6 µM
CC(C)C[C@H](N)c1nnc(SCC(=O)Nc2ccc(Br)cc2)o1	inactive: -26.6%	–
O=C(CCNc1ccc(F)c(Cl)c1)c1ccco1	–	inconclusive [cytotoxic, single point]
O=S(=O)(c1ccc2c(c1)OCCO2)N1CCC(c2nc3ccc(Cl)cc3[nH]2)CC1	–	active: 11.2 µM
CC(C)(O)C(=O)NNC(=S)Nc1ccc(F)c(Cl)c1	inactive: -3.82%	–
Cc1cccc(NC(=O)/C(=C/c2cccc([N+](=O)[O-])c2)NC(=O)c2cccs2)c1	–	inconclusive [cytotoxic, partial curve, poor fit]
COc1ccc(S(=O)(=O)Nc2ccc(F)c(F)c2)cc1Cl	–	inconclusive [cytotoxic, single point]
Cc1cccc(OCCCOc2cccc3cccnc23)c1C	–	inconclusive [cytotoxic, single point]
NC(=O)C1CCN(c2ccnc3cc(Cl)ccc23)CC1	inactive: 15.3%	–
CCOC(=O)c1ccccc1NC(=O)COC(=O)C1CCCC1	inactive: 17.6%	–
CCOc1ccc2nc(NC(=O)C3CCCO3)sc2c1 (centres undefined)	inactive: 1.14%	–
Cc1ccc(NC(=O)c2nc[nH]c2C(=O)NCCCCCNC(=O)OC(C)(C)C)cc1	–	inconclusive [cytotoxic, single point]
CCOc1ccc(S(=O)(=O)/N=C(/Nc2ccc(C(C)=O)cc2)c2ccccc2)cc1	–	inconclusive [cytotoxic, single point]
Cc1ccc(Cl)cc1N1CCN(c2cccc[n+]2C)CC1	–	inconclusive [cytotoxic, partial curve]
O=C(Nc1ccc2nc3n(c(=O)c2c1)CCCCC3)c1cc([N+](=O)[O-])ccc1F	–	inconclusive [cytotoxic, single point]
COc1cccc(/C=N/Nc2nnc(C)n2N)c1O	–	inconclusive [cytotoxic, single point]
COc1ccc(C2(C(=O)NCCc3ccccc3)CCCC2)cc1OC	inactive: 15.5%	–
Cc1cnc(NC(=O)NCC2CCCC(CNC(=O)Nc3ncc(C)s3)C2)s1 (centres undefined)	–	inconclusive [cytotoxic, single point]
